{
  "source": "PubChem BioAssay (NCI)",
  "system": "NCI-H322M lung",
  "assay": "growth of human tumour cells (NCI), 48 h",
  "note": "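1) Cells in 96-well plates. 2) Compound, 48 h, 5 concentrations. 3) Linear interpolation between surrounding doses. 4) Unreached endpoint = highest concentration. The concentration for 50% growth inhibition is given as GI50. TGI is the concentration that stops growth completely.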",
  "data": [
    {"smiles": "Cc1ccc(C(=O)NCCCNc2nc(Nc3ccc(N4CCN(C)CC4)cc3)nc3ccsc23)cc1", "values": [
      {"measurement": "GI50", "value": 3.97, "unit": "µM"},
      {"measurement": "TGI", "value": 15.7, "unit": "µM"}
    ]},
    {"smiles": "O=C(COc1ccc(NC(=O)Nc2ccccc2)cc1)N=Nc1c(O)[nH]c2ccc([N+](=O)[O-])cc12", "values": [
      {"measurement": "GI50", "value": 3.05, "unit": "µM"},
      {"measurement": "TGI", "value": 11.8, "unit": "µM"}
    ]}
  ]
}
